# In the supplement of paper PMC8728848:
# This is one part of the list.
# B1: CAA (Caragana arborescens) (protein)
# chain: VAVEFDTFDNPDWDPRTKHIGIDVNSIRSNKTTQWGFWNRQVADVDISYEASSKTLNVSLYYPGESYIVTDVVDLKDILPEWVRIGF
# Experiments:
# Assay in all cases: glycan array binding signal (z-score within array); higher = stronger binding
# Conditions in all cases: glycan notation: IUPAC condensed, linker removed
# [1] = target: Fuc(a1-2)Gal
# In short: (§1)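 Glycan array data came from 3228 arrays in the Consortium for Functional Glycomics database, and only arrays with an available protein sequence were kept. Glycan names were put into IUPAC-condensed notation, and columns mapping to the same glycan were averaged. The binding signal is a within-array Z-score, averaged across arrays of one protein sequence run at different concentrations or buffers and across linkers. A negative Z-score can be read as non-binding.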
# [2] = target: Fuc(a1-2)Gal(b1-3)GalNAc
# In short: as §1
# [3] = target: Fuc(a1-2)Gal(b1-3)GalNAc(a1-3)[Fuc(a1-2)]Gal(b1-4)Glc
# In short: as §1
# [4] = target: Fuc(a1-2)Gal(b1-3)GalNAc(a1-3)[Fuc(a1-2)]Gal(b1-4)GlcNAc
# In short: as §1
# [5] = target: Fuc(a1-2)Gal(b1-3)GalNAc(b1-3)Gal
# In short: as §1
# [6] = target: Fuc(a1-2)Gal(b1-3)GalNAc(b1-3)Gal(a1-4)Gal(b1-4)Glc
# In short: as §1
# [7] = target: Fuc(a1-2)Gal(b1-3)GalNAc(b1-4)[Neu5Ac(a2-3)]Gal(b1-4)Glc
# In short: as §1
# [8] = target: Fuc(a1-2)Gal(b1-3)GlcNAc
# In short: as §1
# [9] = target: Fuc(a1-2)Gal(b1-3)GlcNAc(b1-2)Man(a1-3)[Fuc(a1-2)Gal(b1-3)GlcNAc(b1-2)Man(a1-6)]Man(b1-4)GlcNAc(b1-4)GlcNAc
# In short: as §1
# [10] = target: Fuc(a1-2)Gal(b1-3)GlcNAc(b1-2)Man(a1-3)[Fuc(a1-2)Gal(b1-3)GlcNAc(b1-2)Man(a1-6)]Man(b1-4)GlcNAc(b1-4)[Fuc(a1-6)]GlcNAc
# In short: as §1
# [11] = target: Fuc(a1-2)Gal(b1-3)GlcNAc(b1-3)Gal(b1-4)Glc
# In short: as §1
# [12] = target: Fuc(a1-2)Gal(b1-3)GlcNAc(b1-3)GalNAc
# In short: as §1
# [13] = target: Fuc(a1-2)Gal(b1-3)GlcNAc(b1-3)[Fuc(a1-2)Gal(b1-3)GlcNAc(b1-6)]GalNAc
# In short: as §1
# [14] = target: Fuc(a1-2)Gal(b1-3)GlcNAc(b1-3)[Gal(b1-4)GlcNAc(b1-6)]Gal(b1-4)Glc
# In short: as §1
# [15] = target: Fuc(a1-2)Gal(b1-3)GlcNAc(b1-3)[Neu5Ac(a2-6)Gal(b1-4)GlcNAc(b1-6)]Gal(b1-4)Glc
# In short: as §1
# [16] = target: Fuc(a1-2)Gal(b1-3)GlcNAc6S
# In short: as §1
# [17] = target: Fuc(a1-2)Gal(b1-3)[Fuc(a1-4)]GlcNAc
# In short: as §1
# [18] = target: Fuc(a1-2)Gal(b1-3)[Fuc(a1-4)]GlcNAc(b1-2)Man(a1-3)[Fuc(a1-2)Gal(b1-3)[Fuc(a1-4)]GlcNAc(b1-2)Man(a1-3)]Man(b1-4)GlcNAc(b1-4)GlcNAc
# In short: as §1
# [19] = target: Fuc(a1-2)Gal(b1-3)[Fuc(a1-4)]GlcNAc(b1-2)Man(a1-3)[Fuc(a1-2)Gal(b1-3)[Fuc(a1-4)]GlcNAc(b1-2)Man(a1-6)]Man(b1-4)GlcNAc(b1-4)[Fuc(a1-6)]GlcNAc(b1-4)[Fuc(a1-6)]GlcNAc
# In short: as §1
# [20] = target: Fuc(a1-2)Gal(b1-3)[Fuc(a1-4)]GlcNAc(b1-3)[Fuc(a1-3)[Gal(b1-4)]GlcNAc(b1-6)]Gal(b1-4)Glc
# In short: as §1
# [21] = target: Fuc(a1-2)Gal(b1-3)[Fuc(a1-4)]GlcNAc(b1-3)[Gal(b1-4)GlcNAc(b1-6)]Gal(b1-4)Glc
# In short: as §1
# [22] = target: Fuc(a1-2)Gal(b1-4)Fuc(a1-3)]GlcNAc(b1-2)Man(a1-3)[Fuc(a1-2)Gal(b1-4)[Fuc(a1-3)]GlcNAc(b1-2)Man(a1-6)]Man(b1-4)GlcNAc(b1-4)GlcNAc
# In short: as §1
# [23] = target: Fuc(a1-2)Gal(b1-4)Glc
# In short: as §1
# [24] = target: Fuc(a1-2)Gal(b1-4)Glc6S
# In short: as §1
# [25] = target: Fuc(a1-2)Gal(b1-4)GlcNAc
# In short: as §1
# [26] = target: Fuc(a1-2)Gal(b1-4)GlcNAc(b1-2)Man
# In short: as §1
# [27] = target: Fuc(a1-2)Gal(b1-4)GlcNAc(b1-2)Man(a1-3)[Fuc(a1-2)Gal(b1-4)GlcNAc(b1-2)Man(a1-6)]Man(b1-4)GlcNAc(b1-4)GlcNAc
# In short: as §1
# [28] = target: Fuc(a1-2)Gal(b1-4)GlcNAc(b1-2)Man(a1-3)[Fuc(a1-2)Gal(b1-4)GlcNAc(b1-2)Man(a1-6)]Man(b1-4)GlcNAc(b1-4)[Fuc(a1-6)]GlcNAc
# In short: as §1
# [29] = target: Fuc(a1-2)Gal(b1-4)GlcNAc(b1-2)[Fuc(a1-2)Gal(b1-4)GlcNAc(b1-4)]Man(a1-3)[Fuc(a1-2)Gal(b1-4)GlcNAc(b1-2)Man(a1-6)]Man(b1-4)GlcNAc(b1-4)GlcNAc
# In short: as §1
# [30] = target: Fuc(a1-2)Gal(b1-4)GlcNAc(b1-3)Gal(b1-4)GlcNAc
# In short: as §1
# [31] = target: Fuc(a1-2)Gal(b1-4)GlcNAc(b1-3)Gal(b1-4)GlcNAc(b1-2)Man(a1-3)[Fuc(a1-2)Gal(b1-4)GlcNAc(b1-3)Gal(b1-4)GlcNAc(b1-2)Man(a1-6)]Man(b1-4)GlcNAc(b1-4)GlcNAc
# In short: as §1
# [32] = target: Fuc(a1-2)Gal(b1-4)GlcNAc(b1-3)Gal(b1-4)GlcNAc(b1-3)Gal(b1-4)GlcNAc
# In short: as §1
# [33] = target: Fuc(a1-2)Gal(b1-4)GlcNAc(b1-3)GalNAc
# In short: as §1
# [34] = target: Fuc(a1-2)Gal(b1-4)GlcNAc(b1-3)[Fuc(a1-2)Gal(b1-4)GlcNAc(b1-6)]GalNAc
# In short: as §1
# [35] = target: Fuc(a1-2)Gal(b1-4)GlcNAc(b1-3)[Fuc(a1-3)[Gal(b1-4)]GlcNAc(b1-6)]Gal(b1-4)Glc
# In short: as §1
# [36] = target: Fuc(a1-2)Gal(b1-4)GlcNAc(b1-6)GalNAc
# In short: as §1
# [37] = target: Fuc(a1-2)Gal(b1-4)GlcNAc6S
# In short: as §1
binder,measurement,setting,value
B1,glycan array binding signal (z-score),[1],-0.218
same,glycan array binding signal (z-score),[2],-0.241
same,glycan array binding signal (z-score),[3],-0.248
same,glycan array binding signal (z-score),[4],-0.248
same,glycan array binding signal (z-score),[5],-0.238
same,glycan array binding signal (z-score),[6],-0.234
same,glycan array binding signal (z-score),[7],-0.239
same,glycan array binding signal (z-score),[8],-0.24
same,glycan array binding signal (z-score),[9],4.07
same,glycan array binding signal (z-score),[10],2.49
same,glycan array binding signal (z-score),[11],-0.237
same,glycan array binding signal (z-score),[12],-0.244
same,glycan array binding signal (z-score),[13],-0.242
same,glycan array binding signal (z-score),[14],-0.249
same,glycan array binding signal (z-score),[15],-0.254
same,glycan array binding signal (z-score),[16],-0.245
same,glycan array binding signal (z-score),[17],-0.244
same,glycan array binding signal (z-score),[18],-0.14
same,glycan array binding signal (z-score),[19],1.03
same,glycan array binding signal (z-score),[20],-0.239
same,glycan array binding signal (z-score),[21],-0.239
same,glycan array binding signal (z-score),[22],-0.171
same,glycan array binding signal (z-score),[23],-0.238
same,glycan array binding signal (z-score),[24],-0.229
same,glycan array binding signal (z-score),[25],-0.242
same,glycan array binding signal (z-score),[26],-0.251
same,glycan array binding signal (z-score),[27],2.51
same,glycan array binding signal (z-score),[28],0.263
same,glycan array binding signal (z-score),[29],-0.069
same,glycan array binding signal (z-score),[30],-0.243
same,glycan array binding signal (z-score),[31],-0.227
same,glycan array binding signal (z-score),[32],-0.232
same,glycan array binding signal (z-score),[33],-0.236
same,glycan array binding signal (z-score),[34],-0.245
same,glycan array binding signal (z-score),[35],-0.243
same,glycan array binding signal (z-score),[36],-0.231
same,glycan array binding signal (z-score),[37],-0.219
